# The full ranking holds about 33,000 sequences; the median of “E-score (-0.5 to 0.5)” is about -0.017, and the highest 2% start at about 0.3. The list shows a part of the results.
# Biological target: T1, Sut1 (UniProt P53032)
# T1 sequence: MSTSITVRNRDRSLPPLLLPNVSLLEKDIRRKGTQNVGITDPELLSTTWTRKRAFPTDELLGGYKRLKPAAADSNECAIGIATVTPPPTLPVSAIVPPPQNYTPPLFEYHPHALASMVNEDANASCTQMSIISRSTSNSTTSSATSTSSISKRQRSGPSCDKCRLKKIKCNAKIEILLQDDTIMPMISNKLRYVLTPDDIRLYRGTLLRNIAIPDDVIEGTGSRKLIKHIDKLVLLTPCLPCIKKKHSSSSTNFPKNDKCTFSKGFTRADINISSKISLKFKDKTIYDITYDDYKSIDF
# Assay: PBM E-score (8-mer binding enrichment) (E-score (-0.5 to 0.5)); higher = stronger / more preferred TF binding; most listed sequences are background and not binding sites
# Conditions: protein concentration: 200 nM; construct: GST-full length
# Protocol: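 Universal 'all 10-mer' protein binding microarrays (Agilent AMADID 015681) probed with GST-tagged S. cerevisiae TFs (full-length or DBD) made by in vitro transcription/translation (PURExpress), about 100-200 nM. Bound TF was detected with fluorescent anti-GST. Each ungapped 8-mer (which stands for itself and its reverse complement) is scored by the PBM enrichment score (E-score), a modified Wilcoxon-Mann-Whitney statistic from -0.5 to +0.5, computed with the Universal PBM Analysis Suite. Scale: above 0.35 generally sequence-specific binding.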
row,Sequence,PBM E-score
1,AACCTCCA,-0.137
2,GCGGGAAC,-0.186
3,AATAAGCA,0.152
4,AGGGTCGC,0.0486
5,GAACGAGC,-0.135
6,ACGCCAAG,-0.26
7,CCGGGCTC,0.0382
8,AATTATCA,0.206
9,AGGACACG,-0.106
10,AGTCTTGA,-0.174
11,ACTGGGGA,-0.236
12,ATACGCAA,0.0176
13,AACTGGAC,-0.265
14,CGATTCAC,0.0111
15,AAGAAGCG,-0.12
16,AACTTTCA,0.124
17,GCTCTCCA,-0.151
18,CTGACCGA,-0.114
19,AAAGAACC,0.163
20,AAAGGCCT,-0.134
21,GCAGCGTA,-0.144
22,CTTTTTGC,0.0242
23,AGATGTAG,-0.0688
24,TACTGATA,0.151
25,AGTCACAC,-0.139

row,Sequence,PBM E-score
1,GCGCGTAA,-0.0752
2,ATTTAGAC,0.0745
3,CTAGTTCA,0.149
4,AGATCGGC,-0.0946
5,AGGGATAG,-0.179
6,CAAGCTGG,-0.243
7,TCATTCGA,0.0139
8,TAGATAGA,0.153
9,AAACCGGG,0.00149
10,ATTGCAAC,0.0207
11,CCAACGCC,-0.24
12,CTGGAAGA,-0.0626
13,ATTTTTCC,0.17
14,AACTGCGA,0.0109
15,AACCCCAG,-0.158
16,AACCCCCG,-0.193
17,AGGTGCGA,-0.276
18,GCTGCTGA,-0.0171
19,AGAAAGAA,0.205
20,ATTACCGG,0.162
21,CATCCTGG,-0.148
22,TCTAGTAA,0.124
23,ATGGATGG,-0.104
24,CGGCTCGA,-0.00416
25,CCATTGGC,-0.115

row,Sequence,PBM E-score
1,AGTTTCGA,0.0435
2,ATTAGCAG,-0.00581
3,TCGCGCCA,-0.0197
4,ATTACTAC,0.111
5,TCATTAGA,0.0867
6,AGACCTGG,-0.317
7,ACAGCCGT,-0.222
8,CGTAGGAA,0.00468
9,AAGTTATA,0.186
10,ATGCTAGA,0.0093
11,ACCGAACC,-0.0678
12,GGCGTATA,-0.112
13,ACAAAGCG,0.0555
14,GATTAACA,0.142
15,ACGGAGAC,0.232
16,GCTAGCGA,-0.0898
17,AACTTTCC,0.0535
18,TACCTACA,-0.0369
19,ACCCGAGT,-0.0972
20,ACTAACCG,0.0114
21,ATAAGAAA,0.176
22,TAGTCGGA,0.317
23,ATCGTAGA,-0.0915
24,TTATCGAA,0.239
25,CTAACTCC,0.221

row,Sequence,PBM E-score
1,CTTACGTA,-0.0235
2,AACGAGAA,0.182
3,AACGAAAA,0.0998
4,CTATAGAA,0.124
5,GATGATCC,0.0171
6,AGGTGGTG,-0.244
7,CCGGAGAG,0.253
8,CTAACCGC,-0.179
9,ATGCTTTC,0.106
10,GAACTTGA,0.0807
11,ACGGACCG,-0.0134
12,AAAAGAAG,0.126
13,GGTATTTA,0.113
14,GTTGTCGA,-0.166
15,GATGCACA,-0.18
16,ATTTCCCC,-0.0345
17,AGCACATA,0.0233
18,ATGATGTA,0.22
19,ACTCGGGC,-0.0385
20,AAGCGAGT,-0.0164
21,ACTTATAG,0.0142
22,ATAAAGAC,0.126
23,ATTAAAAG,0.207
24,ATCCGCTC,-0.0411
25,ATCGCCAT,0.0141

row,Sequence,PBM E-score
1,GTCGCGTA,-0.0265
2,AAACGCGA,-0.0339
3,TGAGAACA,0.113
4,GAAGGGGC,-0.265
5,CGAAGTAC,0.101
6,CATCTTGG,-0.0952
7,CATCGGCA,-0.0361
8,AGTGATAT,0.0292
9,GGATTACA,0.0508
10,ACACACAC,0.0716
11,CGAGAATA,0.0119
12,GCAGTACA,-0.21
13,TACTTGAA,0.0853
14,AGGGCGGG,-0.105
15,AGACCAAT,0.0669
16,CAACGAAG,-0.0703
17,ATATGTTG,0.121
18,CTACCAAG,-0.106
19,AGCGTACT,0.0192
20,AAGGCCAG,-0.00339
21,AGGTGCAA,-0.0176
22,GTCGAGAA,-0.0575
23,CCCCAAAG,-0.173
24,GGAAATCA,0.104
25,GTGAAGAA,0.0729

row,Sequence,PBM E-score
1,ATATCTCC,0.341
2,ATGGACAG,-0.159
3,CAGTAGCC,-0.205
4,AAATCGCT,0.0625
5,CCGGGAAG,0.118
6,AAGATCGC,-0.0393
7,CGATACAG,0.00085
8,CCAATTTC,0.196
9,AGAGTATG,-0.176
10,ACACGTCC,-0.119
11,CCGTCCGA,0.0411
12,AGGTTAAC,0.0215
13,GAACGAAA,-0.0251
14,CATTGACG,0.0133
15,CCGTAGCA,0.0419
16,ATAGAGTC,-0.0827
17,ACCTTTGC,-0.0651
18,GGTACTTA,0.0964
19,CCAGTGGG,-0.221
20,ATTATCTG,0.119
21,ATTGCGGC,-0.171
22,AGTTTATC,0.17
23,CTTTGCCA,0.0365
24,CTGGAGGC,-0.164
25,AATTCTTA,0.104

row,Sequence,PBM E-score
1,CCCGGGAA,-0.03
2,CCATCGTA,-0.0311
3,ATTCGGGA,0.0168
4,ACCGCAAA,0.0534
5,AACATGTC,0.143
6,GACAGACA,0.113
7,AACTGCGG,0.0736
8,CGACAACG,0.0179
9,ATTAACGA,0.213
10,AATAGAGG,-0.0802
11,AAGTTTGG,0.0859
12,ATCTTACG,0.111
13,CCGCCGAG,-0.0739
14,ATTTCGGA,0.396
15,GTGTGTCA,-0.0079
16,GGGTTTGA,0.135
17,GGACACGA,-0.152
18,CATCAGAA,0.0121
19,AGGGCTGC,-0.268
20,GAAACCCC,0.036
21,CAGTCCTA,-0.126
22,ACCGGACT,0.485
23,GAGTTGAC,0.153
24,GAGCCAAC,-0.0698
25,CAGCGATG,-0.0914

row,Sequence,PBM E-score
1,AGTTCCCG,-0.116
2,AGCAAGAA,0.104
3,AACTAGGC,-0.0715
4,CGCTTCCG,0.158
5,GTCTGCAC,-0.202
6,CTTTGCTC,0.00219
7,AAAGAGCC,-0.168
8,ATGGCCTG,-0.304
9,AGCTTAAG,-0.0922
10,TAGCTGAA,0.0295
11,ACCGCCCC,-0.196
12,ACATCACG,0.0369
13,TACACTAA,0.143
14,ATGAGATG,-0.0425
15,ACGGTCCA,-0.177
16,CCCCGCTC,-0.23
17,GCTATATA,0.118
18,CGATCAAC,-0.0996
19,GAACGTCA,-0.195
20,CCGCCAGC,-0.0274
21,GGAAGAGA,0.0239
22,CGGTATTA,0.135
23,ACAGATGG,-0.0956
24,ACACGTGT,-0.38
25,ATGGTCGA,-0.0153

row,Sequence,PBM E-score
1,AGGATGAC,-0.248
2,GGAGACTA,0.0756
3,GATATGGC,-0.172
4,ATTTCATG,-0.00066
5,ATTGAGTA,0.198
6,AGACAGAA,0.0734
7,CTGTTGGA,0.0447
8,CGAAATGA,0.0558
9,CAGAAGGC,-0.0672
10,CCGGGAGG,-0.167
11,AGCGGGAT,-0.216
12,AAGGACCA,-0.0882
13,ATATCGCA,-0.162
14,CTCCCTAC,-0.138
15,GGGCGCAC,-0.267
16,CGGATAAC,0.264
17,GAACCGAC,0.0902
18,CAGTATCC,0.0864
19,ATAAAATG,0.289
